± gives the standard deviation of the averaged measurements. Over roughly 4,100 sequences, “arbitrary fluorescence units” has its median near 780; the highest 2% begin near 22,000. The list shows a part of the results.

The experiment addresses T1, ETS1 (UniProt P14921).
T1 sequence: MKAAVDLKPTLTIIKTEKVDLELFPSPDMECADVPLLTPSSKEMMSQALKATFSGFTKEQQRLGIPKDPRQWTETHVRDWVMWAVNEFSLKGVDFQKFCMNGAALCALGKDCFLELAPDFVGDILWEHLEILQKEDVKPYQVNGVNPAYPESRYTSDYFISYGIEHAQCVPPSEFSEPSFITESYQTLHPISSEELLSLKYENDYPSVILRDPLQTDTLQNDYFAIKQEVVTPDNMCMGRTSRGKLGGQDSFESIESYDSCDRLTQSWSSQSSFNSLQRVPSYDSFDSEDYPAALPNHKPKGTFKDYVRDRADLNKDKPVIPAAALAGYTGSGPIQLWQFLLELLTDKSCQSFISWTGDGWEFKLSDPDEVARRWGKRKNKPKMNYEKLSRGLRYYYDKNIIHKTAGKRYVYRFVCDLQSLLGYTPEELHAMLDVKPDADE
As to the kind of experiment: ETS1 binding intensity (PBM fluorescence), ETS1 alone (arbitrary fluorescence units); higher = stronger binding. The conditions noted are these: ETS1 concentration 1 nM; RUNX1 concentration 0 nM. Summed up:
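Recombinant full-length human ETS1 was applied at 1 nM, without RUNX1, to double-stranded Agilent 4 × 180k arrays of 36-bp genomic probes carrying a mutated RUNX1 partner site, following standard PBM protocols. Detection used an anti-ETS1 antibody (Cell Signaling Technology 14069) and an Alexa488-conjugated secondary antibody, with scanning on a GenePix 4400A. Each sequence was printed as four replicate spots. Binding level is the spot fluorescence intensity, summarised across replicates and not normalised.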
As to TCTTCGGCCTCCTCCACCCCCACACTTCCTCTCTGC, the ETS1 binding intensity was found to be 647.
Sequence CTCATCCACGCACGACTCTGCTCCGTTCCGTTCCGA registered an ETS1 binding intensity of 529.
For CAGCAAGCAACCCCAAAACCAGAGCGGAAGGAGGGA, the ETS1 binding intensity is 770.
Sequence TGAAGGAGCGGAAGGGTTGCTTGCAGACTGCACGGT registered an ETS1 binding intensity of 578.
Sequence ATAAGAATGTAGTTTCCAAAGTTCCGGTTCCTCTTG came in with an ETS1 binding intensity of 1510.
On to TGGGCGCGCTGAGGGAGCTGGGCTTCCCGTACATGA, for which the ETS1 binding intensity came out at 325.
TTACTGCCGGAACTTGGGACCTTTGTAAGCACGTCT: the ETS1 binding intensity stood at 1000.
The sequence GTGTCTCTGGTGTCGGCGCTGCAGGATGACGCGAGC showed an ETS1 binding intensity of 531.
On to GGTTTGGTGCTTTGGTGGCAGCAGGAAGGTAAGGGA, for which the ETS1 binding intensity is 433.
Then CAGTCTGGCCATGAGGTGCCACTTCCTCTCTGGTTT, with 1550; and AGCAACCTACTACCCGGCGCCTGATTCACTTCCCTC, with 391.
In the case of CGGGACAGCGGGCGGACTCAGCCCAGGAAGCGGCAG, the ETS1 binding intensity turned out to be 373.
Sequence TGCCTCTTCCTGTGGCTGGGCTGTATCTGACAACAC displayed an ETS1 binding intensity of 5870.
In the case of CTAGCAGGAAACAGACAGACCCAGCCAGAGAATCTC, the ETS1 binding intensity was 1600.
GAGGGGAGGATGTCTGAGCTTTTAATTGTAGTTTCA: the ETS1 binding intensity is 588.
The sequence CAGGCCTGTGATTTCCTCTGAGTGGATTTCTTGGCC registered an ETS1 binding intensity of 1320.
Sequence CCTGCGGATCACGGAAGTGGCTGCAGTCGGCGCCAT gave an ETS1 binding intensity of 1560.
As to CCGCCGACACACTTCCGGCGGCCACCAGAGGGTATT, the ETS1 binding intensity came out at 21200.
Turning to TGAGGGACTTTCGGGCTCGGTCCTTCCTGAGAGGTG, the ETS1 binding intensity amounted to 404.
Take CCCCTCACTTCCCTCAACCCTTCCCATAAACTGGGA: the ETS1 binding intensity was 1620.
CAGTGACATCCTATATTAATTTAAGGTCACTGCTTA displayed an ETS1 binding intensity of 2460.
Take ACCAGAACAGGAAATGTTAGTGCTTGAGTTAACGGT: the ETS1 binding intensity turned out to be 4300.
On to CCTGCCGAGGAAGTCCCACGTCACTGCGCTTAGAGT, for which the ETS1 binding intensity stood at 487.
On to CAGGCCTTTCCTGCTATCGTTTGGGGTTTGAGCAGT, for which the ETS1 binding intensity turned out to be 1970.
The sequence CCCTCAGCGGCCTCCACAGAGCAGGAAGCAGCCCTC gave an ETS1 binding intensity of 647.
Then TTGGGGTTTGTCAGCCCCAGACAGGCAGGAAACGCT, with 599.
Then CGAGCTGCAGTTTTACGCAGACACACTTCCGGCGCT, with 3050; and AAGCCATTTTACGGCTAAAGCCTTTCCGCCCTTAAA, with 441.
CAGTGTTCCGCGTCCGGGGGTTTATGGGAGTTGCCT: the ETS1 binding intensity worked out at 1440.
As for CTAGCTCCGCCCCGCGAGAAGGACTTCCGCGTCCTC, the figure is 847; as for CTTGCTTAACGCTTCCTGAGGGGTGGCTTGGGTTTT, 1360.
On to GCACCCTTCCTGCTTCCCACAGTGTCGTATAAGAGG, for which the ETS1 binding intensity stood at 4320.
Consider AACAACTGACCGGACAGAACACAGCCCCAAAACACG, for which the ETS1 binding intensity was 436.4 ± 1.1.
In turn, AGGCTGTTGTGAGTTGCGCCGCTTCGGATGTGGGAG returned an ETS1 binding intensity of 364.
Sequence TTCGCCCTTCCCTTCCTATGAAAAGCACTTTCCTTC had an ETS1 binding intensity of 565.
Then CGACCTTACGGGGCGGTGCAAGCTGGCGGAACCCGA, with 374; and ACATGAGGAAGGGGTAAGTGGATTTCCCTACCCCAA, with 390.
As for CTGCCTTTCCTGCTAGGGTACAAATCACAGCCTTAG, the figure is 1670.
In the case of CCGCTTTTTGTAGGCCGGGTGGGTTTCCTAATCTGG, the ETS1 binding intensity stood at 480.
Consider ATACAGCGGCACTGGGTTGGGGTTTCCTGGATGAAC, for which the ETS1 binding intensity was found to be 517.
Then TGTCTCATTTCCTGTAGGTAACAGGCACCAAAATAG, with 26500.
In the case of TTTTTCTTGTGACTTCTTCAGCCACATCCTGACCAA, the ETS1 binding intensity came out at 601.
Turning to TACACACCAAAAACTCCTCACAGCCTCACTTCCTGT, the ETS1 binding intensity stood at 2020.
In the case of TGCAGACTACGGCGGAGGTGGTCTGAGGAAGTTCTA, the ETS1 binding intensity came out at 428.
The sequence GCGATGTTTCCGAGGCAACGCGCTGGTGTGAGTTAG showed an ETS1 binding intensity of 533.
For TGTAATTTGGGGTTAGCACAACACAGGAAGTCCTGC, the ETS1 binding intensity stood at 1150.
With AACCAGAATAACGACAGATCAAGCCGGAAGCACATG, the ETS1 binding intensity stood at 1490.
As to AATGCCGGATATTGGTTCTGGTAAGTCACAAAAAAG, the ETS1 binding intensity turned out to be 5550.
As to GGGCTATTGTTTCCTCCCCCATGTGACAACAGCCTC, the ETS1 binding intensity was 1050.
As for TGTCTCTCACCCCAAAATCCACTTCCTATGATGTTT, the ETS1 binding intensity worked out at 1040 ± 190.
For the sequence TGGCGGCGGATACTGCCCATGGCGCGAGGCCGTAAG, the ETS1 binding intensity is 480.
Consider TTCAACAGGATATTGCTTTGTTATCACAGGCCCTTT, for which the ETS1 binding intensity turned out to be 2310.
CTACGCCAGAGAGCGGGGCGGGAGCGGAAGCGACTC gave an ETS1 binding intensity of 1050.
CCACACGGAAGGGAGTCGTGTCGTGCTTTACCCCGG displayed an ETS1 binding intensity of 377.
Regarding AGCGGATTCCGGACATAACAATCTACAGCGGGCTTA, the ETS1 binding intensity is 873 ± 82.
In the case of ACTTACTTCCCGACGTCACAGCCACCGAAACTACAG, the ETS1 binding intensity amounted to 1920.
As for TACCGCTGCTTCCTGCCTGCGCGTTGAGCCTGTGCC, the figure is 9370; as for ACAGCGCCTCTTCCTGCTCTACCTCATCTGATGTCC, 2790.
Sequence TGCGAGCACCCGGAAGCCGCTTGGGGGCTCCCGGAG came in with an ETS1 binding intensity of 2280.
TGCCTTCTACTCCGGAACTCAGACCCCTGCCTTCTA gave an ETS1 binding intensity of 660.
Then AGGCGCGGATGGTGTCGCAAAGACCAGCAGCGCTAC, with 315.
As for TATCAGCTTCCGACGTGCCCCTCGGTATCTGGACTA, the ETS1 binding intensity turned out to be 1600.
In turn, TTTAAGGTTCATGCTGTACTCAGAACATCCTGTTCT gave an ETS1 binding intensity of 1150.

For the origin of these results see the supplement of paper PMC10681739.
